From PubChem BioAssay AID588855 (National Center for Advancing Translational Sciences (NCATS), 2011)
The whole screen tested about 410,000 compounds, of which about 5,000 (1.2%) were called active. Inconclusive results, whose numbers are uncertain, are shown with a selection of clear calls. Calls follow the shape of the dose curve; as a rule, active = well fitted inhibition curve with a large enough effect; inconclusive = small, poorly fitted or top-dose-only effect; inactive = no such curve, though single readings can be large or run the other way. Where the call is inconclusive, the potency comes from a doubtful curve fit.

test: qHTS for Inhibitors of TGF-b; conditions: HepG2 CAGA-GFP TGF-b/SMAD3 reporter, GFP fluorescence, 18 h, TGF-beta stimulated, 500 pg/mL final; series mostly up to 46.1 µM; also: nearly all actives have a fitted effect of over 65% in size
Method in brief: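 Inhibition was scored as loss of TGF-beta-induced (500 pg/mL final, 18 hours, 37 degrees C) GFP in HEPG2 cells carrying a CAGA-GFP reporter, in DMEM with 1% FBS. Well GFP was summed per cell; Activity was normalised to unstimulated and stimulated DMSO wells, then concentration-response fitting.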
Potency is read from the fitted curve at half-maximal effect; tags tell the direction and shape of the fitted curve.

Row | SMILES | Potency
1 | CC(C)(C)Nc1c(C2CCNCC2)nc2c(OCc3ccccc3)cccn12 | inconclusive: 22.4 µM [inhibitor, single point]
2 | O=[N+]([O-])c1nn(-c2ccc3c(c2)OCCO3)n(O)c1=NCCC1=CCCCC1 | inactive
3 | O=C(O)CCC(=O)Nc1ccc(-n2ccc(C(F)(F)F)n2)cc1 | inactive
4 | CC(C)(C)C1CCC(=NNc2ccc(S(N)(=O)=O)cc2[N+](=O)[O-])CC1 (stereo not drawn) | inconclusive: 12.6 µM [inhibitor, partial curve, poor fit]
5 | C=CCn1c(CC(C)(C)C)nc2ccccc21 | inconclusive: 3.16 µM [inhibitor, single point]
6 | COc1ccc(S(=O)(=O)Nc2ccc3c(c2)C(=O)N([C@H](C)CO)C[C@H](C)[C@@H](CN(C)C(=O)Nc2ccc4c(c2)OCO4)O3)cc1 | inactive
7 | Cc1ccc2oc(C(=O)N(Cc3ccc(N(C)C)cc3)CC3CCCO3)c(C)c2c1 (stereo not drawn) | inconclusive: 22.4 µM [inhibitor, single point]
8 | COC(=O)C1=C(C)N(Cc2ccccc2)C(=NCCc2c[nH]c3ccccc23)N[C@H]1c1cccc(F)c1 | inconclusive: 35.5 µM [inhibitor, single point]
9 | CC(=NNC(=S)SCc1ccccc1)c1ccccn1 | inconclusive: 15.8 µM [inhibitor, single point]
10 | COc1ccc(-c2cn[nH]c2-c2ccc(OCc3ccccc3)cc2O)cc1 | inconclusive: 20 µM [inhibitor, single point]
11 | COc1cc(C(=S)N2CCOCC2)ccc1OS(=O)(=O)c1ccc(NC(C)=O)cc1 | inconclusive: 7.94 µM [inhibitor, partial curve, poor fit]
12 | Cc1ccccc1NC(=O)c1cn(-c2ccccc2)nc1-c1ccccc1 | inconclusive: 35.5 µM [inhibitor, single point]
13 | COc1ccc(OC)c(CN2CCN(S(=O)(=O)c3ccccc3)CC2)c1 | inconclusive: 1.41 µM [inhibitor, partial curve, poor fit]
14 | Cc1cccc(COCC(CC(C)C)N2CCN(C(=O)c3ccc(C(C)(C)C)cc3)CCC2=O)c1 (stereo not drawn) | active: 8.91 µM
15 | O=C(/C=C/c1ccc(NC(=O)c2ccccc2-c2ccccc2C(=O)O)cc1)c1ccccc1 | inconclusive: 15.8 µM [inhibitor, single point]
16 | COc1cccc(Nc2nc(C(N)Cc3ccc(Cl)cc3)cs2)n1 (stereo not drawn) | inconclusive: 35.5 µM [inhibitor, single point]
17 | O=C(CC(c1ccccc1)C1CCCCC1=O)c1ccccc1 (stereo not drawn) | inactive
18 | COc1ccc(N2c3ccccc3CN(Cc3ccccc3)[C@@H](C)[C@H]2Cc2cccnc2)cc1 | inconclusive: 12.6 µM [inhibitor, single point]
